In all, about 33,000 sequences were measured (“E-score (-0.5 to 0.5)”: median about -0.035, highest 2% from about 0.34 on). Some of the results follow.
What follows are sequences tested against T1, Mot3 (UniProt P54785) (assay: PBM E-score (8-mer binding enrichment) (E-score (-0.5 to 0.5)); higher = stronger / more preferred TF binding; most listed sequences are background and not binding sites). Details: protein concentration: 200 nM; construct: GST-full length.
T1 sequence: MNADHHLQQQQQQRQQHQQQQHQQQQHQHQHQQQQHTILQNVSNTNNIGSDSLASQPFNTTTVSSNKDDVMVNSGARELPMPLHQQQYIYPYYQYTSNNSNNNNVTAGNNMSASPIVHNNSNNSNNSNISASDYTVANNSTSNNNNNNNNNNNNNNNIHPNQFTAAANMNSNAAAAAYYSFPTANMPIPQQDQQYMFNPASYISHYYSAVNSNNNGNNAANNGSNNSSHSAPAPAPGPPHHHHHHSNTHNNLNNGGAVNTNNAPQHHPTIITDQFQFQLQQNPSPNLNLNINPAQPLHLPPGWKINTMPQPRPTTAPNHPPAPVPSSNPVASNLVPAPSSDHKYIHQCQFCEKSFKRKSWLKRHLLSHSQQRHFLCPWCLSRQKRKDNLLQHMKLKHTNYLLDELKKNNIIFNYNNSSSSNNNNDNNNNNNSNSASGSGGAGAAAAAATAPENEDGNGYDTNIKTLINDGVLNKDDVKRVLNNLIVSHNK
Method in brief: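 GST-tagged yeast TFs (full-length or DNA-binding domain) were made by PURExpress in vitro transcription/translation and applied at about 100-200 nM to universal all-10-mer Agilent arrays. The arrays were made double-stranded by primer extension, on fresh or once-stripped slides. Bound protein was detected with fluorescent anti-GST, and scans were normalised with masliner. Each ungapped eight-base word, pooled with its reverse complement, received an E-score (modified Wilcoxon-Mann-Whitney statistic) from the Universal PBM Analysis Suite.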

Sequence | PBM E-score
GACACCGC | -0.237
CCGCAGAC | -0.223
CGTTTTTC | -0.0115
ATTAAGGG | -0.014
ATCGTACA | 0.125
AGGTCTCA | -0.0024
AGGAAGAG | -0.0959
CATCCTAG | -0.157
ACACTCTA | 0.0368
CGGAATAC | 0.165
AAATGTCA | 0.0143
GAGAGTGA | -0.176
ACGGAGAG | -0.127
TCCTCACA | -0.088
TACTAAAA | -0.0243
ACCCGTCT | -0.246
CTTGAAAC | 0.0394
GCGTGTCA | 0.305
GCCCGGGC | -0.036
ACTCCAGA | -0.0745
CACTCTTA | 0.11
GACACCTC | -0.081
ATGCGCAC | -0.108
CTTCGACA | 0.12
AGAACGAT | 0.154

Sequence | PBM E-score
ACTAGTAG | 0.114
AGGGCGAA | -0.259
AAAGCGTG | 0.0569
CAAACGAC | 0.0854
CCTGAGGC | 0.13
CCAGCCCA | -0.18
ATTTTTTA | 0.22
AATGTATG | 0.199
AGCCCGCG | -0.213
CCGAACGA | -0.179
GGGAAACA | -0.036
CATCCATG | 0.157
GACCGGAA | -0.265
TGTCGGAA | -0.00633
GATCGCCA | -0.175
ACAATTTC | 0.0299
CGGGGTAA | 0.0225
CATTCGGA | 0.0282
CCATCCAA | 0.019
ATCTGCCG | 0.00708
TCTCGCCA | -0.211
GACCACGC | -0.0952
CCACACGC | 0.0699
CTGGTAGA | -0.0386
CGTTGTTC | 0.0899

Sequence | PBM E-score
CAAGTAAA | 0.246
ACCTGGTC | -0.109
CGTGCTAC | -0.0628
ACAGAGGT | 0.0763
AGCTTCCA | -0.306
CTTAGAGC | -0.0265
CGTAACAC | 0.197
ACAGGCCT | 0.00325
CGTTGAAC | 0.0522
GGGTGGTA | -0.0515
AGCGATAA | -0.0844
ATATGGTG | -0.0371
CTCTGTAA | 0.133
GCTTCCGA | -0.0756
GTGAATTA | 0.178
ACCCCCAG | -0.249
GACCAGTA | -0.0991
CCAACTTC | -0.236
CCAACAGA | -0.142
CCTACGCG | 0.0958
AGTGCTCG | -0.182
GCTAGGAA | 0.0868
CATTCTAG | 0.0956
ATCTCGAG | -0.191
GGGCTAAA | -0.189

Sequence | PBM E-score
AGCGGGGA | -0.142
CGGGTTTA | -0.0764
ACACCGCT | -0.00171
CACCTACC | 0.039
CAGAAAAA | 0.0512
CAACGGTC | -0.116
AGAGGCGA | -0.227
ACACGTAC | 0.294
GCCCCATA | -0.194
ACCTTCTA | 0.0758
GAGCAATC | -0.124
GGAGGCCA | -0.34
AGAGGCAA | 0.409
AGGTAATG | 0.279
GCTTGGAA | -0.183
AATTTAAA | 0.0101
CTCGTGAC | -0.0128
ACGACCAA | -0.0227
AAATTTCT | 0.196
CCTATGCA | 0.0643
CACAGAGG | 0.0647
GGACCTAC | -0.112
ACACTTCG | 0.0312
CCTGGCCG | -0.079
AAGGGACG | -0.0888

Sequence | PBM E-score
TAAAGGCA | 0.481
ACAAAAGT | 0.14
CAAAGCCG | -0.0128
GGGAATCA | -0.268
ACAAAATC | 0.0183
ACTTGATG | 0.113
CGAGTAGA | -0.138
CGCTAGGA | -0.00295
CGCATACG | 0.0571
CCTTAAGG | 0.345
ATCAGTCC | -0.281
GGGTTGAA | -0.104
ACCTGCGT | 0.238
GTGGCCAA | -0.264
GGCCTTTA | 0.00584
GATGGGGA | -0.318
GAAGTAGC | -0.254
AACCACAT | 0.104
GTTGGCAA | 0.0926
AAGGTTCG | 0.0144
AGATCAAG | 0.191
TAGAGTAA | 0.112
CAAAGTCC | -0.187
GCCTAACC | 0.127
TATGTGAA | 0.163

Sequence | PBM E-score
CGGAGAAA | -0.183
CAGCAGAC | -0.148
CCAGGTAC | 0.238
AACCTGCC | 0.0302
GCACATAA | 0.076
CAGCGCCG | -0.367
CCCCTTCG | -0.0557
AACTAATA | 0.181
CCAGGTAA | 0.238
ACGTATCA | 0.0928
CCGTGTCC | 0.0332
CCGAGACA | -0.169
CCGTATAC | -0.0578
ATCCGGTG | 0.0537
CATGGCCC | -0.0426
AAGCGCTT | 0.143
ACTATTCA | -0.0153
CTATAGCC | -0.247
CGGTGCAC | -0.0155
CTTATGTC | 0.0522
TAGGTTAA | 0.199
CAACCGCC | -0.0661
CGGTTCCC | -0.165
CTCCAGAC | -0.252
GGGACAAA | -0.143

Sequence | PBM E-score
TCCGTTAA | 0.0596
ATGTAAAT | 0.42
AAATGATA | 0.2
TGATAGCA | -0.0602
CTGTCCGC | -0.0944
AGCGGATG | -0.0731
ATACACGG | 0.375
GACAACCC | -0.00439
GACTTTCA | -0.155
CACGATCC | 0.106
CCGAAGGA | -0.101
CGGCACTC | -0.251
ATTCAGAA | -0.0281
AGAGCTAC | 0.105
CTAATTAG | 0.0326
AGGGGCCC | -0.107
GCACAAGC | 0.117
CGCTTTAA | 0.191
AATGTCAC | 0.0858
GTCTCTGA | -0.0606
ACATAGCT | 0.135
ATTCTGTC | -0.0735
